This passage reports cell count results from the supplement of paper PMC4604168 (melanoma cell lines).

SMILES strings stand for the structures. This is one part of the list. Most values come without repeats; read them as rough.
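Further: cell number obtained by counting DAPI-stained nuclei in high-throughput microscope images with image analysis software, screen run in 1,536-well plates.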

The test system of the assay is G361. The assay can be described thus: cell count relative to DMSO control; melanoma cells; higher = more viable cells. The settings on record: library dose: low library concentration; 72 h.
`CCN(CC)CCNC(=O)c1c(C)[nH]c(/C=C2\C(=O)Nc3ccc(F)cc32)c1C` [sunitinib] + Clc1ccc(Nc2nnc(Cc3ccncc3)c3ccccc23)cc1 [vatalanib] (first compound 0.4 µM, partner dose 2 µM) yielded a cell count of 96.7%.
With `COc1cc([C@@H]2c3cc4c(cc3[C@@H](O[C@@H]3O[C@@H]5CO[C@@H](C)O[C@H]5[C@H](O)[C@H]3O)[C@H]3COC(=O)[C@H]23)OCO4)cc(OC)c1O` [etoposide] + Cn1c(Nc2ccc(C(F)(F)F)cc2)nc2cc(Oc3ccnc(-c4ncc(C(F)(F)F)[nH]4)c3)ccc21 [CHIR265] (first compound 0.02 µM, partner dose 0.08 µM) the figure was 68.7%.
In turn, `CCN(CC)CCNC(=O)c1c(C)[nH]c(/C=C2\C(=O)Nc3ccc(F)cc32)c1C` [sunitinib] + O=C(O)[C@@H]1[O][Sb](=[O])([O][Sb]2(=[O])[O][C@H]([C@H](O)CO)[C@H](O)[C@H](C(=O)O)[O]2)[O][C@H]([C@H](O)CO)[C@@H]1O [stibogluconate] (first compound 0.4 µM, partner dose 2 µM) returned a cell count of 91.3%.
With `COc1cc([C@@H]2c3cc4c(cc3[C@@H](O[C@@H]3O[C@@H]5CO[C@@H](C)O[C@H]5[C@H](O)[C@H]3O)[C@H]3COC(=O)[C@H]23)OCO4)cc(OC)c1O` [etoposide] + Cc1nc(Nc2ncc(C(=O)Nc3c(C)cccc3Cl)s2)cc(N2CCN(CCO)CC2)n1 [dasatanib] (first compound 0.02 µM, partner dose 0.004 µM) the figure was 81.1%.
